The list shows a part of the results. Construct or isoform of the protein are uncertain.

In this test the target is GST-SBP-ILF3 (Homo sapiens) (UniProt Q12906). Briefly: targeted RNA Bind-n-Seq. The settings on record: RBNS binding buffer: 25 mM Tris pH 7.5, 150 mM KCl, 3 mM MgCl2, 0.1% Tween, 0.5 mg/mL BSA, 1 mM DTT; 27 nM protein, 750 pM RNA pool; temperature not stated; high values mean tight binding; sequences stand for … in GGGUAAAAGCGAGGUGAA…CGGGACAAGUAUUAUGGG
As for “UUUUUUUUUUGAGAUGGUUCCCAUCUUCUA [tttttgagapaired]”, the binding signal (log2 fold change) is 0.126. With “UUUUUUUUUUGAGAACGGCACGUUCUCCUA [tttttgagapaired]”, the binding signal (log2 fold change) stood at 0.162.

With “UUCUCUCUUCCUCCUGUGGAGGAGGGGAGA [ctspaired]”, the binding signal (log2 fold change) was -0.386. Take “UUUUUUUUUUGAGAUGGUUCCCAUCUCCUA [tttttgagapaired]”: the binding signal (log2 fold change) was 0.144. Turning to “UUUUUUUUUUGAGAUGGGGUCCAUCUCCGG [tttttgagapaired]”, the binding signal (log2 fold change) amounted to 0.368. For “GUUGUGUGUGUUGGCAUCUAACACACGCGA [gtspaired]”, the binding signal (log2 fold change) was -0.45. Under “UUUUUUUUUUGAGACUGGUACAGUCUCCGG [tttttgagapaired]” stands 0.408; under “GUUGGUGGUGUUGGCUUCUAACACCGCCAG [gtspaired]”, -0.662. Under “UUUUUUUUUUGAGACUGACUCAGUCUUCUA [tttttgagapaired]” stands 0.201; under “UUUUUUUUUUGAGAUGGUUGCCAUCUUCUG [tttttgagapaired]”, 0.528; under “UUUUUUUUUUGAGAGGGGGACCCUCUCCAG [tttttgagapaired]”, 0.666.

In the case of “UUUUUUUUUUGAGACUGGUACAGUCUCCUA [tttttgagapaired]”, the binding signal (log2 fold change) was -0.0204. The value for “GUUGUGUGUGUUGGAUUCUAACACACGCGA [gtspaired]” was -0.42. The value for “UUUUUUUUUUGAGACUGGUACAGUCUUCUG [tttttgagapaired]” was 0.362; that for “UUUUUUUUUUGAGAGGGGGCCCCUCUUCUA [tttttgagapaired]” was 0.837; that for “UUUUUUUUUUGAGAUGGUCCCCAUCUCCUA [tttttgagapaired]” was 0.661. With “UUUUUUUUUUGAGAGCGGGACGUUCUUCUA [tttttgagapaired]”, the binding signal (log2 fold change) is 0.459. With “GGUGGUGGUGUUGGCAUCUAACACCGCCGC [gtspaired]”, the binding signal (log2 fold change) was -0.462.

As for “GGUGGUGGUGUUGGUCUCUAACACCAUCGC [gtspaired]”, the binding signal (log2 fold change) is -0.65. As to “UUUUUUUUUUGAGAUCGGUGCGAUCUCCGG [tttttgagapaired]”, the binding signal (log2 fold change) came to 0.259. “UUUUUUUUUUGAGAGGGCAUCCCUUUCCAG [tttttgagapaired]”: the binding signal (log2 fold change) was determined as 0.404.

Consider “GUGUGGUGUGUUGGAACCUAACACACUACG [gtspaired]”, for which the binding signal (log2 fold change) was -0.726. “UUUUUUUUUUGAGAGCGAGCCGCUCUCCGG [tttttgagapaired]”: the binding signal (log2 fold change) came to 0.249. For “UUUUUUUUUUGAGAGCGUGUCGCUCUCCAG [tttttgagapaired]”, the binding signal (log2 fold change) is 0.721. The value for “GUGUGUUGUGUUGGAUCCUAACACAACGCG [gtspaired]” was -0.36. For “UUUUUUUUUUGAGAGCGAUGCGUUCUCCAG [tttttgagapaired]”, the binding signal (log2 fold change) amounted to 0.343. The value for “UUUUUUUUUUGAGACGGUGUCCGUCUUCUA [tttttgagapaired]” was 0.745.

On to “GUGUGGUGUGUUGGACCCUAACACACCGCG [gtspaired]”, for which the binding signal (log2 fold change) was -0.484. Under “UUUUUUUUUUGAGACUGGUUCAGUCUCCUA [tttttgagapaired]” stands 0.00607; under “UUCUUCCUUCCUCCUCGGGAGGAGGGGAGA [ctspaired]”, -0.46. Under “GGUUGUGGUGUUGGCAUCUAACACCGCAGC [gtspaired]” stands -0.685; under “UUUUUUUUUUGAGACGGGCGCCGUCUCCAG [tttttgagapaired]”, 0.703; under “UUUUUUUUUUGAGACCGGGGCGGUUUCCAG [tttttgagapaired]”, 0.744. The value for “GUUGUGUGUGUUGGCCUCUAACACACACAG [gtspaired]” was -0.184; that for “UUUUUUUUUUGAGACGGGGUCCGUCUCCUA [tttttgagapaired]” was 0.726.

Regarding “UUUUUUUUUUGAGAGUGUGACAUUCUCCUA [tttttgagapaired]”, the binding signal (log2 fold change) amounted to 0.414. Under “GUGUGUUGUGUUGGUCCCUAACACAGCGCA [gtspaired]” stands -0.572. As to “UUUUUUUUUUGAGACCGUAGCGGUCUCCAG [tttttgagapaired]”, the binding signal (log2 fold change) was 0.589.

For the sequence “UUUUUUUUUUGAGACUGCUGCAGUCUCCUG [tttttgagapaired]”, the binding signal (log2 fold change) is 0.811. Under “UUUUUUUUUUGAGAGCGAACCGCUCUCCAG [tttttgagapaired]” stands 0.154.

Regarding “GUGUGUGGUGUUGGAAUCUAACACCGCAUA [gtspaired]”, the binding signal (log2 fold change) is -0.677. Under “GGUUGUGGUGUUGGCGCCUAACACCGCAGC [gtspaired]” stands -0.251; under “UUUUUUUUUUGAGAUGGUGUCCGUCUCCUG [tttttgagapaired]”, 1.1. The value for “UUUUUUUUUUGAGACGGGGUCCGUCUCCGG [tttttgagapaired]” was 0.525; that for “GUGUGUGGUGUUGGAACCUAACACCAUACG [gtspaired]” was -0.429; that for “UUUUUUUUUUGAGACGGGCUCCGUCUUCUG [tttttgagapaired]” was 0.476.

For the sequence “GGUGUGUGUGUUGGAAUCUAACACACGCGC [gtspaired]”, the binding signal (log2 fold change) is -0.519. The value for “GUGUUGUGUGUUGGCACCUAACACACAGCG [gtspaired]” was -0.697. The value for “UUUUUUUUUUGAGACGGAUGCCGUCUUCUA [tttttgagapaired]” was 0.486; that for “UUUUUUUUUUGAGACUGUUGCAGUCUCCGG [tttttgagapaired]” was 0.476. Under “GUGGUGUGUGUUGGCCCCUAACACAUACCG [gtspaired]” stands 0.0514; under “UUUUUUUUUUGAGACCGUGUCGGUCUCCAG [tttttgagapaired]”, 0.562. Turning to “UUUUUUUUUUGAGACGGAAGCCGUCUCCAG [tttttgagapaired]”, the binding signal (log2 fold change) was determined as 0.343. Under “UUUUUUUUUUGAGAGGGAAUCCCUCUCCAG [tttttgagapaired]” stands 0.0228; under “GUGUGUUGUGUUGGUCCCUAACACAGCGCG [gtspaired]”, -0.48. Under “UUUUUUUUUUGAGAGGGUGACCCUCUCCGG [tttttgagapaired]” stands 0.26. On to “GUGUGGUGUGUUGGUGCCUAACACACUAUA [gtspaired]”, for which the binding signal (log2 fold change) was -0.654.

With “UUUUUUUUUUGAGAGGGGCACCCUCUCCAG [tttttgagapaired]”, the binding signal (log2 fold change) was 0.664. Under “GUGUGGUGUGUUGGCGUCUAACACACCGCA [gtspaired]” stands -0.102. For the sequence “UUUUUUUUUUGAGACCGUAGCGGUCUCCUG [tttttgagapaired]”, the binding signal (log2 fold change) was 0.721. The value for “GGUGUUGGUGUUGGACUCUAACACCGAUAC [gtspaired]” was -0.742. Under “UUUUUUUUUUGAGACCGAGACGGUCUCCUA [tttttgagapaired]” stands 0.0271; under “UUUUUUUUUUGAGACGGUCCCCGUCUCCUA [tttttgagapaired]”, 0.567; under “GGUGGUUGUGUUGGCACCUAACACAGCUAC [gtspaired]”, -0.575. On to “GUGUGUGGUGUUGGCCUCUAACACCACACG [gtspaired]”, for which the binding signal (log2 fold change) was -0.425. Under “UUUUUUUUUUGAGAGUGUGGCAUUCUCCUA [tttttgagapaired]” stands 0.399; under “UUUUUUUUUUGAGAUGGAUACCAUCUCCGG [tttttgagapaired]”, -0.0318. As for “UUUUUUUUUUGAGAGCGAGCCGUUCUCCUA [tttttgagapaired]”, the binding signal (log2 fold change) worked out at 0.122. Under “UUUUUUUUUUGAGAACGGUGCGUUCUUCUA [tttttgagapaired]” stands 0.26. Consider “UUUUUUUUUUGAGACGGAGUCCGUUUCCGG [tttttgagapaired]”, for which the binding signal (log2 fold change) is 0.407.

In the case of “UUUUUUUUUUGAGACCGAAGCGGUUUCCAG [tttttgagapaired]”, the binding signal (log2 fold change) came to 0.647. Under “GGUGGUUGUGUUGGCGUCUAACACAGCCGC [gtspaired]” stands -0.642; under “GUGUUGUGUGUUGGCGUCUAACACACAACG [gtspaired]”, -0.0716. Under “GGUGUGUGUGUUGGCCUCUAACACAUACGC [gtspaired]” stands -0.529. Under “UUUUUUUUUUGAGAUGGACCCCAUCUCCGG [tttttgagapaired]” stands 0.599; under “GUGUGGUGUGUUGGCACCUAACACACCGCA [gtspaired]”, -0.477. Consider “UUUUUUUUUUGAGAACGAGCCGUUCUCCUA [tttttgagapaired]”, for which the binding signal (log2 fold change) was -0.0409. Under “GGUUGUGGUGUUGGCGUCUAACACCGCGAC [gtspaired]” stands -0.734; under “UUUUUUUUUUGAGAUGGCUUCCAUCUCCGG [tttttgagapaired]”, 0.29; under “UUUUUUUUUUGAGAACGAGACGUUCUCCUA [tttttgagapaired]”, 0.028. Under “UUUUUUUUUUGAGACUGUUUCAGUUUCCUA [tttttgagapaired]” stands 0.0819.

For the sequence “GUGUGUGGUGUUGGCGCCUAACACCGCGCA [gtspaired]”, the binding signal (log2 fold change) was -0.3. As to “UUCCUUCUUCCUCCGGGGGAGGGAGAGGGA [ctspaired]”, the binding signal (log2 fold change) is -0.809. Consider “UUUUUUUUUUGAGACUGUGUCAGUCUCCUA [tttttgagapaired]”, for which the binding signal (log2 fold change) was determined as 0.5.

With “UUUUUUUUUUGAGACCGAGACGGUUUCCUG [tttttgagapaired]”, the binding signal (log2 fold change) is 0.817. Under “GGUGGUUGUGUUGGAGUCUAACACAGCCGC [gtspaired]” stands -0.618. As for “UUUUUUUUUUGAGACGGUGUCUGUCUCCUG [tttttgagapaired]”, the binding signal (log2 fold change) was found to be 1.08. The value for “GUGUGGUGUGUUGGUCCCUAACACACCAUA [gtspaired]” was -0.667; that for “UUUUUUUUUUGAGAGUGCGACAUUCUUCUA [tttttgagapaired]” was 0.138. The value for “UUUUUUUUUUGAGAUGGAACCCAUCUCCUG [tttttgagapaired]” was 0.128. For “GGUUGGUGUGUUGGUGUCUAACACAUCGAC [gtspaired]”, the binding signal (log2 fold change) was -0.486. Under “GUGUUGUGUGUUGGAUCCUAACACACAGCA [gtspaired]” stands 0.0682. The value for “GUGGUUGGUGUUGGCUUCUAACACCGAUCA [gtspaired]” was -0.881; that for “UUUUUUUUUUGAGAGUGCAACAUUCUCCAG [tttttgagapaired]” was 0.00839. Consider “UUUUUUUUUUGAGAUCGGCACGAUCUUCUA [tttttgagapaired]”, for which the binding signal (log2 fold change) is 0.0275. In the case of “UUUUUUUUUUGAGAUCGGUCCGAUCUCCAG [tttttgagapaired]”, the binding signal (log2 fold change) was 0.438. Under “UUUUUUUUUUGAGACCGGGUCGGUUUCCAG [tttttgagapaired]” stands 0.571; under “UUUUUUUUUUGAGACCGCGACGGUCUCCGG [tttttgagapaired]”, 0.416. In the case of “UUUUUUUUUUGAGAGCGAGUCGUUCUCCAG [tttttgagapaired]”, the binding signal (log2 fold change) stood at 0.122.

For “UUUUUUUUUUGAGAUCGGAUCGAUCUCCGG [tttttgagapaired]”, the binding signal (log2 fold change) is 0.236. The value for “UUUUUUUUUUGAGACGGGCUCCGUCUCCUA [tttttgagapaired]” was 0.587; that for “GUUGUGUGUGUUGGCUUCUAACACACGCAG [gtspaired]” was -0.766. For the sequence “UUUUUUUUUUGAGAGGGCUACCCUCUUCUG [tttttgagapaired]”, the binding signal (log2 fold change) amounted to 0.685.

The values above are taken from publication PMC5892938.
